The BET-seq Pho4 binding data (Le et al. 2018)
The list shows a part of the results. Values were computed here from the reads of four pooled replicates and scatter widely.

What follows are sequences tested against T1, Pho4 (S. cerevisiae) (UniProt P07270) (assay: relative binding free energy (BET-seq); higher = weaker binding). Details: reference: library average.
T1 sequence: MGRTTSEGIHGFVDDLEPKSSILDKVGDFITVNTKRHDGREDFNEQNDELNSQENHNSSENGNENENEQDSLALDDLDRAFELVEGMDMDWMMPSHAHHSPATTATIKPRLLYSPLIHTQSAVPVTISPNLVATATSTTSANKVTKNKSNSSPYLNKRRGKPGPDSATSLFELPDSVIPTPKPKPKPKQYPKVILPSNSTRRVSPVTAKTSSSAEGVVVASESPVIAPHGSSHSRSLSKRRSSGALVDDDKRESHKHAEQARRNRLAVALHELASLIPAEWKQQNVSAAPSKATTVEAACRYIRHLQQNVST

Relative binding free energy, 0.22 kcal/mol:
TGCATCACGTGTAAGT
TGGGTCACGTGGAGAT

Relative binding free energy, 0.37 kcal/mol:
GTAGTCACGTGTAGCA

Relative binding free energy, 0.07 kcal/mol:
CGGGTCACGTGGAGGC
CGGGTCACGTGGGCTC
GCTGTCACGTGGAGGT
CCGCTCACGTGGGGGT
GGTATCACGTGTTACG
GCGTGCACGTGTATTT

Relative binding free energy, 0.2 kcal/mol:
TTTATCACGTGAGAGT
AATTACACGTGTCATG
TTGATCACGTGGAGGG
GGGCGCACGTGAGTCA
GGCTTCACGTGTATGG

Relative binding free energy, -0.17 kcal/mol:
TGTCGCACGTGGGCCG
GTGCGCACGTGGTGAA
TGTGGCACGTGGGGGC

Relative binding free energy, 0.17 kcal/mol:
TAATGCACGTGAAGTA
ATCGTCACGTGCGTTG
GATCTCACGTGGTGTG
GTAAGCACGTGAGGGG
CCGTACACGTGTGGGA

Relative binding free energy, -0.23 kcal/mol:
CTGGGCACGTGGGGTG

Relative binding free energy, 0.59 kcal/mol:
ATTTTCACGTGATTCC

Relative binding free energy, 0.05 kcal/mol:
AGTCGCACGTGTATTT
TGGTCCACGTGTGTCT
GTGGGCACGTGATGAC
TTGGTCACGTGGTGGT
TCAGTCACGTGGGTAT
CGGGACACGTGTGTTG

Relative binding free energy, -0.14 kcal/mol:
TGAGGCACGTGTTATA
GGTGCCACGTGCTGGT

Relative binding free energy, 0.35 kcal/mol:
GGTTTCACGTGCGGGT
TTGGTCACGTGAGACT

Relative binding free energy, -0.18 kcal/mol:
AGGGGCACGTGACGCG
AGGAACACGTGGTTAG

Relative binding free energy, 0.21 kcal/mol:
TGAATCACGTGTTGCT
TGTATCACGTGCGGAG
CTTTTCACGTGATATT
TATAGCACGTGAGGAT

Relative binding free energy, 0.43 kcal/mol:
AGGTTCACGTGAGAAG

Relative binding free energy, -0.25 kcal/mol:
AGTTGCACGTGGTCTG

Relative binding free energy, 0.09 kcal/mol:
TTCGACACGTGTAGTT
TATGTCACGTGTTGAA
TGCTACACGTGTGAGT
ATTTGCACGTGATATA

Relative binding free energy, 0.11 kcal/mol:
GGATGCACGTGTTACT
GAAGTCACGTGGCGTG
AGTGGCACGTGTGAAG

Relative binding free energy, -0.02 kcal/mol:
TGTATCACGTGGCCGT
ATTTGCACGTGCTAAG

Relative binding free energy, 0.3 kcal/mol:
GTTTTCACGTGTTGGG
GGGTTCACGTGTTTCG

Relative binding free energy, -0.11 kcal/mol:
TGATGCACGTGGAGAT
TTCGGCACGTGGGCTA
GAGGGCACGTGTTTCG
AGGCGCACGTGTTTGT
GATGGCACGTGGTAAG
GAATGCACGTGTATTG
GTATGCACGTGGGCCT

Relative binding free energy, 0.04 kcal/mol:
ACGGTCACGTGGCGGA
TTTGACACGTGTGTTG
GGAGGCACGTGTGTTT

Relative binding free energy, 0.02 kcal/mol:
CTTGTCACGTGCGGAT
CGTTACACGTGGGTGC
TTAATCACGTGGGGTT
TTCGTCACGTGTCTTT
ATATTCACGTGGGCTA
ATTGGCACGTGAAGAG
AGGCGCACGTGCGTTG

Relative binding free energy, 0.41 kcal/mol:
AGCTGCACGTGAAGGG

Relative binding free energy, 0.26 kcal/mol:
GTTTTCACGTGGGGGG
TCGGACACGTGATATT

Relative binding free energy, 0.06 kcal/mol:
TCGTGCACGTGTTTAG
ATTGACACGTGATTTT
CATATCACGTGCGTGT
AGTTGCACGTGATACG
GTATGCACGTGTTTCG
GGAGACACGTGTGCAT
GTGTGCACGTGACGGA

Relative binding free energy, 0.32 kcal/mol:
TTTTTCACGTGGTCAT
GAGGTCACGTGTCTGA
CGGATCACGTGAGTTT
GTGGTCACGTGAAGAT

Relative binding free energy, 0.23 kcal/mol:
TGTTCCACGTGACGGG
TTGAACACGTGTAGAT

Relative binding free energy, -0.13 kcal/mol:
AGATGCACGTGGGCGT
ATGAGCACGTGTGTAT

Relative binding free energy, -0.09 kcal/mol:
GTCAGCACGTGTGGGC
TATACCACGTGGTGGA
ATTTGCACGTGCGTGT

Relative binding free energy, 0.18 kcal/mol:
TTTTTCACGTGTACTA
CTGATCACGTGTAGGG
TTATACACGTGTAGAA

Relative binding free energy, 0.16 kcal/mol:
TGGTACACGTGTATAT
ACTGGCACGTGATTGA
TCTAGCACGTGGAGGC
TTCGACACGTGTGGAT
AAATTCACGTGATTAG
ATTGGCACGTGTAAAT
GTCCACACGTGTGGGG

Relative binding free energy, 0.27 kcal/mol:
GTTGCCACGTGAGTTG
GTACTCACGTGGCTGG
GGATTCACGTGGTTTA
TTGAACACGTGAGGGA

Relative binding free energy, -0.07 kcal/mol:
TGGAACACGTGTGGTA
GGCAACACGTGGAGGT
AGGTACACGTGGTATT
TATGTCACGTGGCATA
GGAAACACGTGGGGTT
TGAAGCACGTGGCATG
TGTAACACGTGCGGGG
TTTGCCACGTGATGTG
TGCGTCACGTGGCTGT

Relative binding free energy, 0.01 kcal/mol:
GTTGTCACGTGGGGCT
TTTAGCACGTGTAAAA
CATGTCACGTGCGTTG
GTAACCACGTGCGGGT
TACGGCACGTGTGTGG
ATTATCACGTGTTCGG
TCCGTCACGTGTTGGG
TTAGACACGTGCGGGT
ATTTACACGTGCTTAT

Relative binding free energy, -0.15 kcal/mol:
AGTCGCACGTGGGTAT
TTCAGCACGTGGTGTA

Relative binding free energy, 0.47 kcal/mol:
TATATCACGTGAGGTC

Relative binding free energy, 0.25 kcal/mol:
GGAATCACGTGAGGGA
GAGCTCACGTGTTTGT

Relative binding free energy, -0.2 kcal/mol:
TGTAACACGTGGTCGT
ATTGGCACGTGGGCAG
GAGCGCACGTGGTGGA
CGGTGCACGTGGGGGT
TGGGGCACGTGGCAGA

Relative binding free energy, 0.24 kcal/mol:
GGATTCACGTGAGTGA

Relative binding free energy, 0.03 kcal/mol:
TATCGCACGTGAATGT
AGTAGCACGTGTGGAA

Relative binding free energy, -0.24 kcal/mol:
TGGGCCACGTGGTTGC
TTGCGCACGTGGAGGG

Relative binding free energy, 0.34 kcal/mol:
TGGCTCACGTGAGGGG
TGTCTCACGTGAGTTT
GATTTCACGTGGCGTG
ATGTTCACGTGACTGG
GTGTTCACGTGTCATG

Relative binding free energy, -0.01 kcal/mol:
TGTACCACGTGTATGT
TGGGTCACGTGTTCAG
GTTGGCACGTGTGGCT
TGGGCCACGTGAGGTA
GGGTGCACGTGTGTGT

Relative binding free energy, -0.28 kcal/mol:
CAAAGCACGTGGGGGG

Relative binding free energy, -0.1 kcal/mol:
GTTACCACGTGGCGGG

Relative binding free energy, -0.16 kcal/mol:
GGTGCCACGTGCCGGG
TGGCGCACGTGGTGAG

Relative binding free energy, 0 kcal/mol:
GCTGGCACGTGGATTT
TTCTGCACGTGGAATT
TTTATCACGTGGTCAA
ATACGCACGTGGTTTT
TAACTCACGTGGGGTG

Relative binding free energy, -0.12 kcal/mol:
TGTCACACGTGGGGAG
TTTAGCACGTGCTTAA
TAACACACGTGGGTGG
AGTAACACGTGTTATT

Relative binding free energy, -0.05 kcal/mol:
GTGTGCACGTGGTAAG
AGTGGCACGTGACTTT
GGGTGCACGTGTTCTA
CTTGCCACGTGTGTAG
TGCTACACGTGGGTTA

Relative binding free energy, -0.06 kcal/mol:
TTCTGCACGTGGTAGG

Relative binding free energy, 0.39 kcal/mol:
TGTTTCACGTGAATAG
GTTTTCACGTGATCTA

Relative binding free energy, -0.19 kcal/mol:
GTGAGCACGTGGCGGC
TGGAGCACGTGGGGTG
TATGGCACGTGGGTTC

Relative binding free energy, -0.04 kcal/mol:
CTCGACACGTGGGGTG
TGTTACACGTGGCCGT
GAGTGCACGTGGATGT

Relative binding free energy, 0.1 kcal/mol:
GGGGTCACGTGCTGCT
TTGGTCACGTGGTTGA
TAGTGCACGTGAGAGT
GCAGTCACGTGTAGTG
TGGTACACGTGTTCAT
GGATGCACGTGCGGGC
TTGATCACGTGCGTTG
GGCGACACGTGGAGGG
TGGTACACGTGGACTT
TCGTTCACGTGGGCGG

Relative binding free energy, 0.31 kcal/mol:
GTTAGCACGTGAGGCG
TAGTTCACGTGTCCGG
TTTTTCACGTGCTGGT

Relative binding free energy, -0.3 kcal/mol:
TTCGCCACGTGGGTGG

Relative binding free energy, 0.19 kcal/mol:
GGGGTCACGTGATCGC
CGCTTCACGTGTTGGG
GTTGTCACGTGTTGCT
GTTGTCACGTGACAGG
GCGTTCACGTGCAGGG
TTTGTCACGTGGCTGA
TCGGTCACGTGTTTAT

Relative binding free energy, 0.14 kcal/mol:
TATCTCACGTGTAGTG

Relative binding free energy, 0.15 kcal/mol:
TATGACACGTGATAAT
ATTGACACGTGATGTA
CGTGTCACGTGTGAGA
TGAATCACGTGGATGT

Relative binding free energy, -0.08 kcal/mol:
GGTTGCACGTGCGCTG
GCCGGCACGTGGGGTC
AGAGGCACGTGCTTTT
CTGGTCACGTGGCAGT
TTAGGCACGTGGACTA

Relative binding free energy, 0.08 kcal/mol:
ATGATCACGTGGTGTC
CCGGTCACGTGTGTTG
TTTGCCACGTGAGGTA
ATATACACGTGATGTG

Relative binding free energy, 0.29 kcal/mol:
TTGTTCACGTGTTAAG
TTGTGCACGTGAGATC

Relative binding free energy, 0.5 kcal/mol:
TGGATCACGTGATGAT

Relative binding free energy, 0.28 kcal/mol:
GGCGTCACGTGAGGTG
GGAGTCACGTGTATGG
TTCAACACGTGTCGGG

Relative binding free energy, 0.13 kcal/mol:
TTTATCACGTGTCTCT
TTATTCACGTGTAGTG
TGTATCACGTGGCATT
TGGGTCACGTGCTGTT
GCTGTCACGTGGTGGT

Relative binding free energy, -0.03 kcal/mol:
TGATGCACGTGCAGAG
GGGTGCACGTGGCGAT
CAGGGCACGTGTTAAT
AAAGGCACGTGTGGCT
GAGGGCACGTGACTGT

Relative binding free energy, 0.12 kcal/mol:
TTGTACACGTGACTTG
ATGGACACGTGATCGG
GGGGTCACGTGGTGCA
ATAAGCACGTGAGTGT
